No constants are given. Whether binding was seen depends on the method and setting. Binding seen in cells or lysates may run through a third protein. Some results given as binding are weak or reduced against the parent protein; the word gives no strength. For some of these results: Where a sequence is shown, tags or fusion partners need not be part of it.

Chains of the proteins cited; added tags and fusions are not shown.
UniProt Q03195: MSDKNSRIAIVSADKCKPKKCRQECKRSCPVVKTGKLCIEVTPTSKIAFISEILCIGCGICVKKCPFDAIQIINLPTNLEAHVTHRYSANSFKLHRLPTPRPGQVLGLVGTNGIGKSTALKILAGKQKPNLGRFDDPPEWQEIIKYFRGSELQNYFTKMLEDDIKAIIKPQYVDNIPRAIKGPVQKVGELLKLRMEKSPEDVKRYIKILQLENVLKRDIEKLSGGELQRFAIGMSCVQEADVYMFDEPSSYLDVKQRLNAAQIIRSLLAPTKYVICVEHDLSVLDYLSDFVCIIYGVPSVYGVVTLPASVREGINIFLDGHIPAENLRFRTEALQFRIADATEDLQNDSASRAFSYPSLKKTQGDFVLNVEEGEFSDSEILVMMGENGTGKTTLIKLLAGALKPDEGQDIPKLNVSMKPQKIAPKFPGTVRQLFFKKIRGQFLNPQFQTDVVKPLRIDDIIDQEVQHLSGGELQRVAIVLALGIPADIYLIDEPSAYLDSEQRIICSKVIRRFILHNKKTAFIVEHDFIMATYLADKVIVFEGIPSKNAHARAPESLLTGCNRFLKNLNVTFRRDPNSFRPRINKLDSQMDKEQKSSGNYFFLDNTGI

This passage reports binding results from article PMC6511868.

Common to all, as to test: co-IP; yeast lysates; GFP-Trap_A beads (GFP-tagged baits) or IgG-Sepharose (TAP-tagged baits), 3 h at 4°C, western blot; wild type and the strains sup45-2, rat8-2, rat7ΔN shifted to 37°C for 1 h; also 0.5 mg/ml cycloheximide for 30 min; also high copy RLI1
For orientation: Immunoblotting shows a protein as a band on a membrane.

The target of assay [1] is T1, Dbp5 as precipitated in the Dbp5 IPs (tag not told) (S. cerevisiae) (UniProt P20449).
T1 sequence: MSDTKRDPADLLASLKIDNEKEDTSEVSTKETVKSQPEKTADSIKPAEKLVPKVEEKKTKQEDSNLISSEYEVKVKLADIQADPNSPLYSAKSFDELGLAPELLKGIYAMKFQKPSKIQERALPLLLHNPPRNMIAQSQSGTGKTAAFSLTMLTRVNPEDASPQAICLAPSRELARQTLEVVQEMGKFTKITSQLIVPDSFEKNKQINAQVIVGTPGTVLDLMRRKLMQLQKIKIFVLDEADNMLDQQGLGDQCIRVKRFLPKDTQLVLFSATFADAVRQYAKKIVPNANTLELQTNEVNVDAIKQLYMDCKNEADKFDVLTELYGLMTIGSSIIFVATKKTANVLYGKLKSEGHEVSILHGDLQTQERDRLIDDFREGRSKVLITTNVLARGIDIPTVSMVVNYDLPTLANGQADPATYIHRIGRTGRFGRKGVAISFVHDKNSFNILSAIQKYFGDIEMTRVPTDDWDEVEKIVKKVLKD

The target of the next assay is Rli1-GFP (S. cerevisiae) (UniProt Q03195).
Another assay deals with eRF1-GFP (S. cerevisiae) (UniProt P12385).
For assay [2], the target named is T2, uL29 as bait of the co-IP of Figure 6C (tag not told) (S. cerevisiae) (UniProt P0CX84).
T2 sequence: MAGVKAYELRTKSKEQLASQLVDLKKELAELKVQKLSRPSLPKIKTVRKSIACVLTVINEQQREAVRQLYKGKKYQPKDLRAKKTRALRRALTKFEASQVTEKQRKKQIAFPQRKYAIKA

For another assay, the target named is T3, uS3-GFP (S. cerevisiae) (UniProt P05750).
T3 sequence: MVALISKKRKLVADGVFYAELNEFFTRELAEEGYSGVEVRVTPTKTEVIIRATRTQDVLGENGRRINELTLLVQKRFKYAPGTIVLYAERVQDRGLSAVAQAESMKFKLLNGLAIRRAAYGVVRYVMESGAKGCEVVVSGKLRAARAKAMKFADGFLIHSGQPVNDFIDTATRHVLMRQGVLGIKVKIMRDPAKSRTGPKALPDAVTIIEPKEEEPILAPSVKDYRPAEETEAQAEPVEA

Assay [3] deals with Prt1-GFP (S. cerevisiae), P06103. To be noted: remark: other sources report otherwise.

B1: small ribosomal protein uS3 (yeast Rps3) (protein, UniProt P05750 1-240)
chain: MVALISKKRKLVADGVFYAELNEFFTRELAEEGYSGVEVRVTPTKTEVIIRATRTQDVLGENGRRINELTLLVQKRFKYAPGTIVLYAERVQDRGLSAVAQAESMKFKLLNGLAIRRAAYGVVRYVMESGAKGCEVVVSGKLRAARAKAMKFADGFLIHSGQPVNDFIDTATRHVLMRQGVLGIKVKIMRDPAKSRTGPKALPDAVTIIEPKEEEPILAPSVKDYRPAEETEAQAEPVEA
For the molecule B1, the binding entry (in assay [1]; with Rli1-GFP (S. cerevisiae)) was “binds” each time.

B2: Hem15 (protein, UniProt P16622 32-393)
chain: NAQKRSPTGIVLMNMGGPSKVEETYDFLYQLFADNDLIPISAKYQKTIAKYIAKFRTPKIEKQYREIGGGSPIRKWSEYQATEVCKILDKTCPETAPHKPYVAFRYAKPLTAETYKQMLKDGVKKAVAFSQYPHFSYSTTGSSINELWRQIKALDSERSISWSVIDRWPTNEGLIKAFSENITKKLQEFPQPVRDKVVLLFSAHSLPMDVVNTGDAYPAEVAATVYNIMQKLKFKNPYRLVWQSQVGPKPWLGAQTAEIAEFLGPKVDGLMFIPIAFTSDHIETLHEIDLGVIGESEYKDKFKRCESLNGNQTFIEGMADLVKSHLQSNQLYSNQLPLDFALGKSNDPVKDLSLVFGNHEST
With B2, the binding entry with Rli1-GFP (S. cerevisiae) is reported as “no binding”.

B3: Asc1 (protein, UniProt P38011 1-319)
chain: MASNEVLVLRGTLEGHNGWVTSLATSAGQPNLLLSASRDKTLISWKLTGDDQKFGVPVRSFKGHSHIVQDCTLTADGAYALSASWDKTLRLWDVATGETYQRFVGHKSDVMSVDIDKKASMIISGSRDKTIKVWTIKGQCLATLLGHNDWVSQVRVVPNEKADDDSVTIISAGNDKMVKAWNLNQFQIEADFIGHNSNINTLTASPDGTLIASAGKDGEIMLWNLAAKKAMYTLSAQDEVFSLAFSPNRYWLAAATATGIKVFSLDPQYLVDDLRPEFAGYSKAAEPHAVSLAWSADGQTLFAGYTDNVIRVWQVMTAN
As for B3, the binding result (with eRF1-GFP (S. cerevisiae); in assay [2]; in the assay with uS3-GFP (S. cerevisiae)) was “binds” throughout.

B4: eukaryotic release factor 1 (eRF1), P12385 1-437 (protein)
chain: MDNEVEKNIEIWKVKKLVQSLEKARGNGTSMISLVIPPKGQIPLYQKMLTDEYGTASNIKSRVNRLSVLSAITSTQQKLKLYNTLPKNGLVLYCGDIITEDGKEKKVTFDIEPYKPINTSLYLCDNKFHTEVLSELLQADDKFGFIVMDGQGTLFGSVSGNTRTVLHKFTVDLPKKHGRGGQSALRFARLREEKRHNYVRKVAEVAVQNFITNDKVNVKGLILAGSADFKTDLAKSELFDPRLACKVISIVDVSYGGENGFNQAIELSAEALANVKYVQEKKLLEAYFDEISQDTGKFCYGIDDTLKALDLGAVEKLIVFENLETIRYTFKDAEDNEVIKFAEPEAKDKSFAIDKATGQEMDVVSEEPLIEWLAANYKNFGATLEFITDKSSEGAQFVTGFGGIGAMLRYKVNFEQLVDESEDEYYDEDEGSDYDFI
For the molecule B4, the binding result in assay [3] was “binds”.

B5: Zwf1 (protein, UniProt P11412 1-505)
chain: MSEGPVKFEKNTVISVFGASGDLAKKKTFPALFGLFREGYLDPSTKIFGYARSKLSMEEDLKSRVLPHLKKPHGEADDSKVEQFFKMVSYISGNYDTDEGFDELRTQIEKFEKSANVDVPHRLFYLALPPSVFLTVAKQIKSRVYAENGITRVIVEKPFGHDLASARELQKNLGPLFKEEELYRIDHYLGKELVKNLLVLRFGNQFLNASWNRDNIQSVQISFKERFGTEGRGGYFDSIGIIRDVMQNHLLQIMTLLTMERPVSFDPESIRDEKVKVLKAVAPIDTDDVLLGQYGKSEDGSKPAYVDDDTVDKDSKCVTFAAMTFNIENERWEGVPIMMRAGKALNESKVEIRLQYKAVASGVFKDIPNNELVIRVQPDAAVYLKFNAKTPGLSNATQVTDLNLTYASRYQDFWIPEAYEVLIRDALLGDHSNFVRDDELDISWGIFTPLLKHIERPDGPTPEIYPYGSRGPKGLKEYMQKHKYVMPEKHPYAWPVTKPEDTKDN
B5: the binding entry with Rli1-GFP (S. cerevisiae) was “no binding”.

B6: large ribosomal protein uL29 (yeast Rpl35) (protein, UniProt P0CX84 1-120)
chain: MAGVKAYELRTKSKEQLASQLVDLKKELAELKVQKLSRPSLPKIKTVRKSIACVLTVINEQQREAVRQLYKGKKYQPKDLRAKKTRALRRALTKFEASQVTEKQRKKQIAFPQRKYAIKA
B6: the binding result (in assay [1]; with Rli1-GFP (S. cerevisiae)) was “binds” in each case.
